{
  "source": "PubChem BioAssay AID720542",
  "about": "(National Center for Advancing Translational Sciences (NCATS), 2013)",
  "note": "In all, about 360,000 compounds went through this assay and about 740 (0.21%) were called active. The shares of active, inactive and inconclusive entries below differ from those in the screen. The call rests on the fitted dose curve; in most records, active means well fitted inhibition curve with a large enough effect; inconclusive means small, poorly fitted or top-dose-only effect; inactive means no such curve, though single readings can be large or run the other way. No potency is given beside an inconclusive call; the fits are too rough. Potency means the concentration at half of the fitted maximal effect; tags describe the fitted curve by direction and shape.",
  "data": [
    {"test_system": "Plasmodium falciparum AMA1 (3D7) - RON2 peptide interaction", "test": "qHTS for Inhibitors of AMA1-RON; Towards Development of Antimalarial Drug Lead: Primary Screen; further: nearly all actives have a fitted effect of over 45% in size;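 on activity change, negative = inhibition: 0% = vehicle wells and -100% = peptide control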", "conditions": "AlphaScreen AMA1-biotinylated RON2 peptide binding; activity change, negative = inhibition: at 58.2 µM (top of the series) unless noted", "summary_of_the_method": "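AMA1 (3D7) with his tag at 25 nM final met compounds first, then biotinylated RON2 peptide at 25 nM; detection used donor plus acceptor beads, 10 µg/mL apiece, read by AlphaScreen after 30 min at room temperature.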", "values": [
      {"smiles": "CC(=O)c1ccc(N=Nc2ccc(N(C)C)cc2)cc1", "activity change, negative = inhibition": "inconclusive: -10.4% [inhibitor]"},
      {"smiles": "Brc1c(-c2ccccc2)nc2n1Cc1ccccc1-2", "Potency": "inconclusive [inhibitor, single point]"},
      {"smiles": "Cc1ccc(C(=O)N/C(=C\\c2cccs2)C(=O)NCCc2c[nH]c3ccccc23)cc1C", "Potency": "inconclusive [inhibitor, single point]"},
      {"smiles": "C[C@]12c3[nH]c4ccc(Cl)cc4c3CCN1C(=O)[C@@H](CC(=O)NCc1ccco1)C[C@@H]2C(=O)N1CCCCC1", "Potency": "inconclusive [inhibitor, single point]"},
      {"smiles": "O=C(Nc1nc2ccsc2c(=O)s1)c1ccco1", "activity change, negative = inhibition": "inactive: -11.3%"},
      {"smiles": "COc1ccc(C(=O)/C=C/c2ccc(N3CCCCC3)c([N+](=O)[O-])c2)cc1", "Potency": "inconclusive [inhibitor, partial curve]"},
      {"smiles": "COc1ccc(CN(C(=O)c2ccc(-c3ccccc3)[nH]2)C(C(=O)NC(C)(C)C)c2ccncc2)cc1", "note": "(configuration not stated)", "Potency": "inconclusive [inhibitor, single point]"},
      {"smiles": "COc1ccc(C(=O)O)cc1N1C(=O)Nc2ccccc2N1O", "Potency": "inconclusive [inhibitor, single point]"},
      {"smiles": "N#Cc1nc(-c2ccccc2F)oc1NCCc1ccccc1", "Potency": "inconclusive [inhibitor, single point]"},
      {"smiles": "COc1ccccc1CNc1nc(NCc2ccccc2)nc2ccsc12", "Potency": "inconclusive [inhibitor, single point]"},
      {"smiles": "COc1ccc(NC(=O)CSc2nnc(-c3cccs3)n2N)cc1S(N)(=O)=O", "activity change, negative = inhibition": "inactive: 2.9%"},
      {"smiles": "CN(C)CCCN(C(=O)c1ccc2c(c1)CCCC2)c1nc2ccc(F)cc2s1", "Potency": "inconclusive [inhibitor, single point]"},
      {"smiles": "O=C(c1cc(C2CC2)nn1-c1ccccc1)N1CCN(S(=O)(=O)c2c(F)cccc2F)CC1", "activity change, negative = inhibition": "inactive: 8.84% [at 11.6 µM]"},
      {"smiles": "Cc1ccc(SCCC(=O)Nc2nccs2)cc1", "Potency": "inconclusive [inhibitor, single point]"},
      {"smiles": "CCOC(=O)C1=C(c2ccccc2)N=c2s/c(=C\\c3ccco3)c(=O)n2C1c1cccs1", "note": "(configuration not stated)", "Potency": "inconclusive [inhibitor, partial curve]"},
      {"smiles": "C=CCOc1ccc(C2/C(=C(\\O)c3ccc4c(c3)OCCO4)C(=O)C(=O)N2CCCN2CCOCC2)cc1", "note": "(configuration not stated)", "activity change, negative = inhibition": "inactive: 6.27%"},
      {"smiles": "CCOC(=O)/C(C#N)=C\\c1ccc(N2CCN(C/C=C/c3ccccc3)CC2)cc1", "Potency": "inconclusive [inhibitor, partial curve]"},
      {"smiles": "O=C(N/N=C/c1cccs1)c1cccnc1", "activity change, negative = inhibition": "inactive: 46.2%"},
      {"smiles": "Cc1c(N=C/C=C/c2ccccc2)cnn1C", "activity change, negative = inhibition": "inactive: -2.17%"},
      {"smiles": "O=[N+]([O-])c1ccc(Cl)c(CN2CCCCCC2)c1", "Potency": "inconclusive [inhibitor, partial curve]"},
      {"smiles": "O=C(c1cc2c(s1)CCCC2)N1CCN(c2ccccc2)CC1", "Potency": "inconclusive [inhibitor, single point]"},
      {"smiles": "COC(=O)C1CCN(Cc2cn(-c3ccccc3)nc2-c2ccc3c(c2)OCO3)CC1", "Potency": "inconclusive [inhibitor, partial curve]"},
      {"smiles": "N#C/C(=C/c1ccc(N2CCCCC2)cc1)c1cccc(F)c1", "Potency": "active: 15.8 µM"},
      {"smiles": "Cc1ccc2nc(-c3cccc(Br)c3)c(Cc3ccccc3)n2c1", "Potency": "inconclusive [inhibitor, single point]"},
      {"smiles": "CC1CCc2[nH]c3ccc(C(=O)N(C)CC(=O)Nc4ccc(F)cc4)cc3c2C1", "note": "(configuration not stated)", "activity change, negative = inhibition": "inactive: -18.2%"},
      {"smiles": "CN(C)c1ccc(-c2ccnc3c2CC(C)(C(=O)NCc2ccccc2)O3)cc1", "note": "(configuration not stated)", "Potency": "inconclusive [inhibitor, partial curve]"},
      {"smiles": "CC1CN(c2oc(COc3ccc(Cl)cc3Cl)nc2C#N)CC(C)O1", "note": "(configuration not stated)", "Potency": "inconclusive [inhibitor, single point]"},
      {"smiles": "CC1CC(OP(O)(=S)c2ccc(N(C)C)cc2NC(=O)c2cccs2)CC(C)(C)C1", "note": "(configuration not stated)", "Potency": "inconclusive [inhibitor, partial curve]"},
      {"smiles": "COc1cc(OC)c(OC)cc1CN1CCN(Cc2ccc(SC)cc2)CC1", "Potency": "inconclusive [inhibitor, single point]"},
      {"smiles": "S=C(NCc1ccccc1)NNc1ccccc1", "Potency": "inconclusive [inhibitor, partial curve]"},
      {"smiles": "O=C(CSc1nnnn1-c1ccccc1)c1ccco1", "activity change, negative = inhibition": "inactive: 4.34%"},
      {"smiles": "O=C(C(Sc1ccccc1)c1ccccc1)N1CCN(c2ccccc2)CC1", "note": "(configuration not stated)", "Potency": "inconclusive [inhibitor, partial curve]"},
      {"smiles": "CCOc1ccc(NC(=O)Nc2cc(C(=O)O)ccc2N2CC3CC(C2)c2cccc(=O)n2C3)cc1", "note": "(configuration not stated)", "activity change, negative = inhibition": "inactive: 1.49%"},
      {"smiles": "OCc1ccnc2c(O)cccc12", "Potency": "active: 11.2 µM"},
      {"smiles": "CCN(CC(=O)NCc1ccc(F)cc1)C(=O)CN1CCN(c2ccc(OC)cc2)CC1", "Potency": "inconclusive [inhibitor, single point]"},
      {"smiles": "COc1ccc(Cn2c(=O)[nH]c3cc(C(=O)Nc4ccc(N5CCN(C)CC5)cc4)ccc32)cc1", "Potency": "inconclusive [inhibitor, partial curve]"},
      {"smiles": "CCOC(=O)C1=C(C)N=c2s/c(=C3/C(=O)Nc4ccccc43)c(=O)n2C1c1ccc(C)cc1", "note": "(configuration not stated)", "activity change, negative = inhibition": "inactive: 30.1%"},
      {"smiles": "CCC(c1nnnn1Cc1ccco1)N(Cc1ccccc1OC)Cc1cc2cc(C)ccc2[nH]c1=O", "note": "(configuration not stated)", "activity change, negative = inhibition": "inactive: 4.76%"},
      {"smiles": "CC1=CC(C)(C)N2C(=O)C(=O)c3cc(OC(=O)c4ccco4)cc1c32", "Potency": "inconclusive [inhibitor, partial curve]"},
      {"smiles": "O=C(CCN1CCOCC1)Nc1ccc2c(c1)N(C(=O)CN1CCOCC1)c1ccccc1CC2", "activity change, negative = inhibition": "inactive: -0.584%"},
      {"smiles": "Cc1cc(C)cc(NCc2cc3c(cc2[N+](=O)[O-])OCO3)c1", "Potency": "inconclusive [inhibitor, single point]"},
      {"smiles": "COc1ccc(CCNc2nc(-c3sc(C)nc3C)cs2)cc1OC", "Potency": "inconclusive [inhibitor, single point]"},
      {"smiles": "O=C(CN1CCN(Cc2ccccc2)CC1)Nc1ccc(F)c(F)c1", "Potency": "inconclusive [inhibitor, single point]"},
      {"smiles": "CN1CCN(c2ccc3sc(-n4ccc5ccccc54)nc3c2)CC1", "Potency": "inconclusive [inhibitor, partial curve]"},
      {"smiles": "O=[N+]([O-])c1cc(Cl)ccc1-c1nc(-c2ccccc2)no1", "Potency": "inconclusive [inhibitor, partial curve]"},
      {"smiles": "COc1cccc(N=Cc2c(O)c3ccccc3oc2=O)c1", "activity change, negative = inhibition": "inactive: 16.7%"},
      {"smiles": "COc1ccccc1C1CCN(Cc2ccc3ccccc3c2)CC1", "Potency": "inconclusive [inhibitor, partial curve]"},
      {"smiles": "CCCCN(C)c1c(N2CCC(C(=O)OCC)CC2)c(=O)c1=O", "activity change, negative = inhibition": "inactive: -0.389%"},
      {"smiles": "COc1ccc(NC(=S)NNC(=S)Nc2cccc(C(F)(F)F)c2)cc1", "Potency": "inconclusive [inhibitor, full curve]"},
      {"smiles": "CCc1nc2oc3cc(OC)ccc3c(=O)c2c(=O)n1Cc1ccco1", "Potency": "inconclusive [inhibitor, partial curve]"},
      {"smiles": "Cc1c(C(=O)N2CCc3ccccc32)oc2c1C(=O)CC(C)(C)C2", "activity change, negative = inhibition": "inactive: -2.65%"},
      {"smiles": "O=C(Nc1ccccc1C(=O)NCCN1CCOCC1)c1ccc(Cl)cc1Cl", "Potency": "inconclusive [inhibitor, partial curve]"},
      {"smiles": "Cc1nnc2ccc(N3CCN(c4cccc(C(F)(F)F)c4)CC3)nn12", "Potency": "inconclusive [inhibitor, full curve, poor fit]"},
      {"smiles": "CCn1cc(C(=O)OCc2ccc(F)cc2)c(=O)c2ccc(C)nc21", "Potency": "inconclusive [inhibitor, full curve, poor fit]"},
      {"smiles": "S=C(NNc1ccc2ccccc2c1)NC1CCCCC1", "Potency": "active: 15.8 µM"},
      {"smiles": "S=C(NCC1CCCO1)N1CCN(c2ccc(Cl)c(Cl)c2)CC1", "note": "(configuration not stated)", "Potency": "inconclusive [inhibitor, single point]"},
      {"smiles": "Cc1ccc(Sc2ccc(CN3CCCC3)cc2[N+](=O)[O-])cc1", "Potency": "inconclusive [inhibitor, single point]"},
      {"smiles": "Cc1ccc(NC(=O)CSc2nncn2N)cc1C", "activity change, negative = inhibition": "inactive: -2.86%"},
      {"smiles": "C[C@H](NC(=O)c1nc[nH]c1C(=O)N(C)CCO)c1ccccc1", "Potency": "inconclusive [inhibitor, partial curve]"},
      {"smiles": "CC(C)N1C(=O)/C(=C\\c2nc3ccccc3c(=O)[nH]2)c2ccccc21", "Potency": "inconclusive [inhibitor, partial curve]"},
      {"smiles": "Cc1ccc(C2(c3noc(CN4CCC(c5ccncc5)CC4)n3)CCCC2)cc1", "Potency": "inconclusive [inhibitor, partial curve]"},
      {"smiles": "Cc1c(C)n(CCCN(C)C)c2ncnc(NCc3ccccc3)c12", "Potency": "inconclusive [inhibitor, partial curve]"},
      {"smiles": "COc1cccc(NC(=O)CSc2nc3ccccc3nc2N2CCOCC2)c1", "activity change, negative = inhibition": "inactive: 0%"},
      {"smiles": "CCc1nc(SCC(=O)Nc2ccc(N(C)C)cc2)c2ccccc2n1", "Potency": "inconclusive [inhibitor, single point]"},
      {"smiles": "Cc1cc2nc(-c3ccc(SCC(=O)N4CCc5ccccc54)nc3)[nH]c2cc1C", "Potency": "inconclusive [inhibitor, single point]"},
      {"smiles": "O=S(=O)(N1CCOCC1)n1nnc2ccccc21", "Potency": "inconclusive [inhibitor, single point]"},
      {"smiles": "C#CCOCCOCCOCCNc1nc(N2CCN(C(=O)CCCCCCCCCCNC(=O)[C@@H](CCSC)n3cc(CCO)nn3)CC2)nc(N2CCN(C(=O)CCCCCCCCCCNC(=O)[C@H]([C@@H](C)CC)n3cc(CCCCCN)nn3)CC2)n1", "Potency": "inconclusive [inhibitor, single point]"}
    ]}
  ]
}
